In PubChem BioAssay AID1794842 (National Center for Advancing Translational Sciences (NCATS), 2023):
Screen size: about 2,800 compounds; fewer than 10 were called active. The call rests on the fitted dose curve; in most records, active means well fitted curve in the direction sought with a large enough effect; inconclusive means small, poorly fitted or top-dose-only effect, or another doubt; inactive means no such curve, though single readings can be large or run the other way. Some of the results follow.

These molecules were tested against Metallo-beta-lactamase type 2 (Klebsiella pneumoniae) (UniProt C7C422) (assay: qHTS to identify inhibitors of the New Delhi Metallo-beta-lactamase (NDM): Meropenem screen against the machine-based learning selections.). Details: Purified NDM-1, meropenem hydrolysis, absorbance 300 nm; at 38.4 µM (top of the series) unless noted.
UniProt C7C422, sequence (C7C422 whole entry, looked up): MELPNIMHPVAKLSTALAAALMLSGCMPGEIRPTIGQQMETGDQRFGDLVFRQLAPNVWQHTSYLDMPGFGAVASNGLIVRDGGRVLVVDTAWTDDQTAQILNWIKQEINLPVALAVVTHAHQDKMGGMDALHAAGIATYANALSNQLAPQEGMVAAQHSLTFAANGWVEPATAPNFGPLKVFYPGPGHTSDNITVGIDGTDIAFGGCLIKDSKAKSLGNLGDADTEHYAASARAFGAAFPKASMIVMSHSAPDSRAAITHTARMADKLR
Outline: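 NDM-1 (2 nM final) in 50 mM HEPES pH 7.0, 1 uM Zn2SO4, 0.01% Tween20 was preincubated with compounds for >30 min. Nitrocefin (16.7 uM final) was read at 485 nm after 15 min, and meropenem (50 uM final) at 300 nm after 30 min.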
Further: % of control where 0% means no effect.

Activity change, negative = inhibition, inactive:
O=C(NC[C@H]1OC[C@@H](NC2CCC(F)(F)CC2)[C@@H]1O)C1CC1 0.28% [at 57.5 µM]
c1ccc(-c2nnc3ccc(NCc4cccs4)nn23)nc1 9.11% [at 57.5 µM]
OCC1CN(c2ccncn2)CC12CCN(Cc1c[nH]c3ccccc13)CC2 (configuration not stated) 1.68%
CC(C)Oc1ccc(C(=O)N2CCC3(CC2)C(=O)N(C)c2ccccc23)cc1 -1.61%
Cc1ccc(S(=O)(=O)N2C[C@@H](C(N)=O)[C@H](C3CCN(C)CC3)C2)cc1Cl -1.93%
COc1ccccc1Nc1ncc2c(n1)CN(C(=O)c1cccc(O)c1)CCN2 15.1% [at 57.5 µM]
COCCNC(=O)C[C@@H]1C[C@H]2O[C@H](CNC(=O)N3CCOCC3)[C@@H](O)[C@H]2O1 -0.183% [at 57.5 µM]
CC(C)(C)C(=O)N1C[C@H]2OC(=O)N(CCc3cccc(Cl)c3)[C@H]2C1 -2.99%
Cc1ccc2c(c1)nc1n2[C@@H](CNCc2ccc(S(C)(=O)=O)cc2)COC1 0.808% [at 57.5 µM]
CC(Cc1ccc2c(c1)OCO2)CN1CCC(CO)(CN2CCCC2)CC1 (configuration not stated) -2.2%
COc1ccc(-c2ccnc3nc(CCc4ccccc4)nn23)c(F)c1 -0.957%
OCc1ccnc(-c2ccc(-c3ccn[nH]3)cc2)c1 22%
Cn1ncc(N2CCC(NC(=O)c3ccsc3)CC2)cc1=O 0.878%
O=C(CC[C@@H]1CNC(=O)[C@@H]2C[C@H](NCc3ccc(F)cc3)CN12)NCc1ccc(F)cc1 -0.358%
COc1ccc(NC(=O)N[C@H]2CO[C@H]3[C@@H]2OC[C@H]3OC(=O)Nc2ccc(OC)cc2)cc1 2.71%
COc1ccc(CC2(CO)CCN(c3nccc(N)n3)CC2)cc1 -1.44%
COc1ccc(CN2CCOc3ccc(C(=O)NCc4ccc(C)cc4)cc3C2)c(OC)c1 0.837%
CC(=O)N1CCC(N2CCOC[C@H]2c2ncc(-c3ccncc3)[nH]2)CC1 5.66% [at 57.5 µM]
Cc1c(C(=O)N2CCCn3nc(C(C)O)cc3C2)sc2nc[nH]c(=O)c12 (configuration not stated) 1.13%
O=C1NCC(c2ccc(Cl)cc2)Cc2[nH]c(-c3ccc(O)cc3)nc21 (configuration not stated) 8.24%
Cc1cc(F)ccc1OC1CN(Cc2ccc(F)cc2)C1 -0.758% [at 57.5 µM]
O=C(O)c1ccccc1C(=O)N[C@H]1CO[C@H]2[C@@H]1OC[C@@H]2n1nnnc1-c1ccc2c(c1)OCO2 1.16%
O=C(NCCc1ccccn1)C1CCCN(c2nc(-c3ccccc3)nc3c2CCC3)C1 (configuration not stated) 29.6%
c1ccc(-c2nnc3ccc(NC4CCC4)nn23)nc1 17.9% [at 76.7 µM]
O=C(O)C1(CCc2ccccc2)CCCN(c2ncnc3nc[nH]c23)C1 (configuration not stated) 20.7%
NC(=O)Cc1c[nH]c2ncc(-c3ccccc3Oc3ccccc3)cc12 5.46% [at 57.5 µM]
CCNC(=O)[C@@H]1C[C@H](NC(=O)c2ccccc2)CN1Cc1scnc1C -0.341%
N#Cc1cccc(CN2CCC(C3=NC(O)c4cc(F)ccc4N3)CC2)c1 (configuration not stated) 2.09%
C=CCC(=O)N1CCCC1C(=O)Nc1ccc(-c2cccc(OC)c2)cc1 (configuration not stated) 8.12%
COc1ccc(OC)c(S(=O)(=O)N2C[C@@H](F)C[C@H]2C(=O)N2CCc3ccccc3C2)c1 4.62%
O=C(N[C@H]1CCN2C(=O)c3cc(-c4ccsc4)ccc3NC(=O)[C@H]12)c1cccc(F)c1 1.49%
O=C(Cc1c[nH]c2ncc(-c3ccccc3)cc12)NCc1ccncc1 2.64% [at 57.5 µM]
CSc1cccc(NC(=O)N(C)CC2CCOCC2)c1 -0.523%
CCOc1cc(=O)n2c(c1C(=O)N1CCN(c3ccc(F)cc3)CC1)CCCC2 2.67%
O=C(Nc1ccccc1)c1cnc2c(c1)N(C(=O)Cc1ccc(O)cc1)CCC2 11.6% [at 57.5 µM]
COc1ccc(CN2CCNc3cc(-c4ccnc(C)c4)ncc3C2)cc1O 4.08% [at 57.5 µM]
CCNC(=O)[C@@H]1C[C@H](n2cc(CN(C)C(=O)NC3CCCCC3)nn2)CN1 62%
CN1CCC(N2CCC[C@H]2C(=O)NCc2cc3n(n2)CCCNC3)CC1 44.8%
CC[C@H]1CN(C(=O)Nc2cccc(C(F)(F)F)c2)CC[C@H]1CC(=O)Nc1ccccc1 0.122% [at 57.5 µM]
COc1ccc(-c2cnc3[nH]cc(CC(=O)Nc4cccnc4)c3c2)cc1 3.64% [at 57.5 µM]
Oc1ccccc1CN1CCC(O)(c2csc(CN3CCc4ccccc4C3)n2)CC1 0.65%
COCCNc1ncc(-c2cccc(N[S+](C)(=O)[O-])c2)c2c1OCC2 10.3% [at 57.5 µM]
COC[C@H]1CCCN1Cc1nc(C2(O)CCN(C3CCC3)CC2)cs1 0.513% [at 57.5 µM]
COc1ccc(-c2[nH]ncc2CNC(=O)C2NCCc3[nH]cnc32)cc1 (configuration not stated) 47%
O=C(NCc1ccc(F)cc1)c1ccnc(-c2nnc3ccc(Nc4ccccc4)nn23)c1 19.4%
O=C(NC[C@H]1OC[C@@H](NCc2ccccc2)[C@@H]1O)c1ccccc1 -1.32% [at 57.5 µM]
CN(C)c1nccnc1OC1CCN(C(=O)CCCc2ccccc2)C1 (configuration not stated) -0.852%
O=C(N[C@H]1CCN2C(=O)c3cc(-c4cccc(C(F)(F)F)c4)ccc3NC(=O)[C@@H]2C1)c1ccncc1 1.42%
FC(F)(F)c1ccc(N2CCC(N[C@@H]3C[C@@H]4OCC[C@@H]43)CC2)nc1 10.6%
NC(=O)Cc1c[nH]c2ncc(-c3ccc(F)cc3)cc12 12.5% [at 76.7 µM]
COC[C@H]1C[C@@H](NS(C)(=O)=O)[C@H](O)[C@@H]1O 0.519% [at 76.7 µM]
COCCNc1cc(-c2noc([C@@H]3CCCN3Cc3ccccn3)n2)ccn1 7.4% [at 57.5 µM]
CC1=C[C@@H](CNC2CCOCC2)[C@H](C(C)C)C[C@H]1Cc1nc2ccc(Cl)cc2[nH]1 8.32% [at 57.5 µM]
COCC1(CNCc2ccc(F)cc2)C[C@@H](O)[C@@H](O)C1 (some centres not stated) 6.53% [at 76.7 µM]
COc1ccc(C(=O)Nc2ccc([C@H]3OCC(=O)N(Cc4cccnc4)[C@@H]3CO)cc2)cc1 5.15%
C=CCc1cc(C2CC(=O)Nc3[nH]ncc32)cc(OCC)c1OC (configuration not stated) 1.43%
COCc1cn([C@H]2CO[C@H]3[C@@H]2OC[C@H]3OC(=O)Nc2cccc(C(F)(F)F)c2)nn1 1.63% [at 57.5 µM]
O=C(O)C[C@@H]1CCN(C(=O)c2cccs2)C[C@@H]1CCN1CCN(c2cccc(C(F)(F)F)c2)CC1 28.9%
CCn1ccc(C(=O)N2CCCC(c3nn(C)c(=O)n3-c3ccccc3)C2)n1 (configuration not stated) 0.0344%
COc1ccc(CC(=O)Nc2ccc([C@H]3OCC(=O)N(Cc4scnc4C)[C@@H]3CO)cc2)cc1 -0.818%
O=C(c1ccc(CNc2nccc(-c3cccnc3)n2)cc1)N1CCCCC1 -3.9%
CCNC(=O)O[C@@H]1CO[C@H]2[C@@H]1OC[C@@H]2NC(=O)c1ccccn1 0.441% [at 57.5 µM]
O=C(O)C[C@@H]1CCN(S(=O)(=O)c2ccccc2)C[C@@H]1CCN(CCN1CCOCC1)c1ccccc1 15.4%
CCc1cc(=O)n(CC(=O)Nc2cc(OC)cc(OC)c2)c(N2CCOCC2)n1 -3.6%
COc1cccc(N2CC(C(=O)NCC(F)(F)F)NC2=O)c1 (configuration not stated) 0.0508% [at 57.5 µM]
CC(=O)Nc1ccc(CN2CCN3C(=O)N(Cc4ccc(C)cc4)C[C@H]3C2)cc1 1.32% [at 57.5 µM]
OCCc1ccc(Nc2cnc3ccc(-c4ccc(F)cc4)nn23)cc1 43.8% [at 57.5 µM]
Cc1cc(Cn2cc3c4c(cccc42)[C@H](CC(C)C)N[C@H](C(=O)O)C3)no1 71.3% [at 57.5 µM]
OC[C@@H]1O[C@H](CN(Cc2cccc(Cl)c2)Cc2cccc(Cl)c2)[C@H](N2CCN(c3ccccn3)CC2)[C@@H]1O 58.1%
CC(=O)NC1(C)CCCN(Cc2cc(-c3cccc(C(F)(F)F)c3)cs2)C1 (configuration not stated) -0.584% [at 57.5 µM]
O=C(NCCc1nccc(-c2ccccc2)n1)c1ccc2cccc(F)c2n1 5.23%
O=C1Nc2ccc(-c3ccccc3F)cc2C(=O)N2CC[C@H](NS(=O)(=O)c3cccs3)[C@@H]12 -0.292%
COC(=O)[C@@H]1Cc2ncn(C)c2CN1C(=O)c1ccc(-c2ccccc2)cc1 15% [at 57.5 µM]
O=C(Cc1c[nH]c2ncc(-c3ccc(Cl)cc3)cc12)NCc1cccnc1 -0.899% [at 57.5 µM]
CCn1cc(CN2CCc3ccccc3C2)ccc1=O 1.57%
C=CCC1(CO)CCCN(CCOc2ccc(C)cc2Cl)C1 (configuration not stated) 1.22%
NC(=O)[C@H](Cc1cccs1)NC(=O)C1=C[C@@H](NC(=O)NC2CCCCC2)[C@@H](O)[C@H](O)C1 -0.293%
